Some of the results follow. These are further read-outs of the screen, such as a control signal, another cell line or another target. No call is given for them. The list favours compounds with an active or inconclusive main result. Words in brackets tell the shape of the fitted curve; partial curves, single points and poor fits give uncertain potencies.
Key:
[1] = target: Histamine N-methyltransferase (Homo sapiens) (UniProt P50135); assay: Confirmatory Screen for Target Class Profiling of Small Molecule Inhibitors of Methyltransferases (AID 1745852); conditions: MTase-Glo luminescence, SAH detection, recombinant enzyme; measured here: HNMT inhibition potency;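 note: inhibitor potency for blocking SAH production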
[2] = target: Nicotinamide N-methyltransferase (Homo sapiens) (UniProt P40261); assay: as above; conditions: MTase-Glo luminescence, SAH detection, recombinant enzyme; measured here: NNMT inhibition potency
Tags give direction and shape of the fitted curve.

UniProt P50135, sequence (P50135 whole entry, looked up): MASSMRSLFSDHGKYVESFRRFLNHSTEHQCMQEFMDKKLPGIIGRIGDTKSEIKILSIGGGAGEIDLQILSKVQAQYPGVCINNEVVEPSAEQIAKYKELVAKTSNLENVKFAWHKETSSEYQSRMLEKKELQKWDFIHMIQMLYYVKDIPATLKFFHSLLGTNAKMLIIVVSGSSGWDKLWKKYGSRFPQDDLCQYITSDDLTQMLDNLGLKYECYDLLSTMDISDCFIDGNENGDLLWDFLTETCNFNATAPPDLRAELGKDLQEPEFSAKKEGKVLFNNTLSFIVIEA
UniProt P40261, sequence (P40261 whole entry, looked up): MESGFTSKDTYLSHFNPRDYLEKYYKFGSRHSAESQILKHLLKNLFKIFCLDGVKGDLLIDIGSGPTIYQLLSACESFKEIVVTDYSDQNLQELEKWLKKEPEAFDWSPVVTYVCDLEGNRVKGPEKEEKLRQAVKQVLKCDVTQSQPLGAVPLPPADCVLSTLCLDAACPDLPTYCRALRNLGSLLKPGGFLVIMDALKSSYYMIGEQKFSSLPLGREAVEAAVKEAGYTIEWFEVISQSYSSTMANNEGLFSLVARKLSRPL

| SMILES | IC50 [1] | IC50 [2] |
| --- | --- | --- |
| CN(C)CC1CCn2c(c(C3=C(c4cn(C)c5ccccc45)C(=O)NC3=O)c3ccccc32)C1 (stereo unspecified) | 19.2 µM [falling, partial curve] | 21.5 µM [falling, partial curve] |
| COc1cc2nc(N3CCCCC3)nc(NC3CCN(Cc4ccccc4)CC3)c2cc1OC | 19.2 µM [falling, partial curve] | 21.5 µM [falling, partial curve] |
| N#Cc1ccc2[nH]cc(CCCCN3CCN(c4ccc5oc(C(N)=O)cc5c4)CC3)c2c1 | 13.6 µM [falling, partial curve] | 8.57 µM [falling, full curve] |
| NC(N)=N/N=C/c1c(Cl)cccc1Cl | 21.7 µM [falling, partial curve] | 15.3 µM [falling, partial curve] |
| NCC(CNc1nc(Nc2cccc(NC(=O)N3CCCC3)c2)ncc1I)C(=O)c1cccs1 (stereo unspecified) | 24.1 µM [falling, partial curve] | 21.5 µM [falling, partial curve] |
| CCCc1cc2c(N3CCN(C4=NCC(C)(C)S4)CC3)ncnc2s1 | 19.2 µM [falling, partial curve] | 7.64 µM [falling, partial curve] |
| Cc1c[nH]c2nccc(Oc3c(F)cc(Nc4cc(Cl)nc(N)n4)cc3F)c12 | 15.2 µM [falling, partial curve] | 24.1 µM [falling, partial curve, poor fit] |
| COc1ccc(N(C(=O)Nc2c(C)cccc2C)c2cc(Nc3ccc(N4CCN(C)CC4)cc3)ncn2)c(OC)c1 | 24.1 µM [falling, partial curve] | 21.5 µM [falling, partial curve] |
